Measured values as given in the supplement of paper PMC12889115.
The list shows a part of the results. Single values are uncertain, as repeats are few or missing.

Tested on: Salmonella enterica serovar Typhimurium SL1344
Assay: bacterial growth OD600 after 18 h in MHB with 0.5 µg/mL polymyxin B; higher = more bacterial growth (less inhibition)
Settings: 25 µM; polymyxin B 0.5 µg/mL; system: broth
Protocol: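 Secondary screen of the 553 primary hits at 25 µM. (i) S. Typhimurium SL1344 grown in Mueller-Hinton broth with 0.5 µg/mL polymyxin B, OD600 read after 18 h. (ii) SAFIRE assay: RAW 264.7 macrophages infected with S. Typhimurium sifB::gfp (MOI 30); compound added 2 h post-infection; cells fixed at 18 h; GFP-positive pixel fraction per macrophage imaged by confocal microscopy and expressed as % of DMSO control.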
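Note: polymyxin B level opens the outer membrane while sparing the inner membrane, with novobiocin wells as reference growth inhibitor.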

| SMILES | bacterial growth OD600 |
| --- | --- |
| O=C(Nc1ccc(-c2cccc(F)c2)cc1)C1CCCN(C(=O)Cc2ccccn2)C1 (stereo not given) | 0.001 |
| COCCN1C(=O)CC(CC(=O)N(C)CCC23CC4CC(CC(C4)C2)C3)(c2ccccc2OC)C1=O (stereo not given) | -0.012 |
| CCS(=O)(=O)c1ncc(CN(C)Cc2ccc(C)cc2)n1CCc1ccccc1 | -0.003 |
| OCCOc1cccc(CN2Cc3ccccc3OC(c3ccccc3F)C2)c1 (stereo not given) | -0.013 |
| Cc1ccc(OCC(=O)N2CCC(C(Cc3ccccc3)N(C)C(=O)c3ccoc3C)CC2)cc1 (stereo not given) | -0.001 |
| COc1ccc(C(=O)N2CCCC(C(=O)c3ccc4ccccc4c3)C2)o1 (stereo not given) | 0.003 |
| COCc1ccc(CN2CCCC(C(=O)Nc3ccccc3-c3ccc(OC)cc3)C2)o1 (stereo not given) | 0.629 |
| CCS(=O)(=O)Nc1cc(C(=O)N(C)C(C)c2cccs2)c2c(c1)nc(-c1ccccc1)n2C (stereo not given) | 0.008 |
| Cc1ccn(CC(=O)N2CCCC(CCc3ccccc3C)C2)n1 (stereo not given) | 0.021 |
| Cc1cccc(N2CCN(C(=O)c3cn(Cc4ccccc4F)nn3)CC2)c1C | -0.013 |
| CSc1ncc(CN2CCc3c([nH]c4ccccc34)C2c2cccc(O)c2)cn1 (stereo not given) | -0.001 |
| COc1ccccc1-c1cn2c(C(=O)N3CCCCC3c3ccccn3)csc2n1 (stereo not given) | 0.005 |
| COc1cccc(OC)c1-c1cnnc(NCc2cccc(C(F)(F)F)c2)n1 | -0.008 |
| COCCN1C(=O)CC(CC(=O)N2CCCC(COc3ccccc3C)C2)(c2ccccc2F)C1=O (stereo not given) | -0.007 |
| O=C1N(Cc2cccc(Cl)c2)C[C@@H]2C[C@@H](c3cccc4cnccc34)N3CCC[C@@]123 | 0.001 |
| Cc1nn(C)cc1CN1CCOc2ccc(C3=Cc4ccccc4C3)cc2C1 | -0.006 |
| CSc1ccccc1C(=O)N1CCC(C(Cc2ccccc2F)N(C)C(=O)c2cccs2)CC1 (stereo not given) | 0.003 |
| CC(Cc1ccccn1)NC(=O)CN1Cc2ccccc2OC(c2ccccc2F)C1 (stereo not given) | 0.006 |
| O=C(Nc1ccc(Oc2cccnc2)cc1)C1CCN(Cc2cccc(Cl)c2)CC1 | 0.118 |
| COC1CCN(C(=O)CC(c2ccccc2)c2ccccc2Cl)CC1 (stereo not given) | 0.414 |

| SMILES | bacterial growth OD600 |
| --- | --- |
| O=C(CCN1Cc2ccccc2OC(c2ccccc2)C1)N1CCC(Oc2cccnc2)CC1 (stereo not given) | 0.003 |
| CCOC(=O)C1(Cc2ccccc2F)CCCN(C(=O)c2c(C)nc3sccn23)C1 (stereo not given) | 0.535 |
| CC1CCN(Cc2nc(-c3cccc(Cl)c3)no2)CC1 | 0.415 |
| CC(C)S(=O)(=O)c1ncc(CN(C)Cc2cccs2)n1Cc1ccccc1F | -0.01 |
| CC(C)c1ccc(NC2CCCN(C(=O)c3ccc4c(c3)OCO4)C2)cc1 (stereo not given) | 0.003 |
| CCc1ccc(CN(C)C(=O)c2cn(CC3COc4ccccc4O3)nn2)cc1 (stereo not given) | -0.001 |
| O=C(c1cc2cc(F)ccc2[nH]1)N1CCCC(CO)(Cc2cccc(Cl)c2)C1 (stereo not given) | -0.002 |
| Cc1cnccc1CNC(=O)C1(N(C)CCc2ccccc2)Cc2ccccc2C1 | 0.001 |
| Cc1ccc(C(=O)N(Cc2ccc(OCc3ccc4c(c3)OCO4)cc2)CC2CCCO2)s1 (stereo not given) | 0.003 |
| O=C(/C=C/c1cccs1)N(Cc1ccncc1)Cc1cccc(OCCc2ccc(F)cc2)c1 | -0.002 |
| O=C(CC1(c2cccc(F)c2)CC(=O)N(C2CCCC2)C1=O)N1CCC(C(O)c2cccs2)CC1 (stereo not given) | -0.006 |
| CN(C(=O)c1ccco1)C(Cc1ccc(F)cc1F)C1CCN(Cc2cc(Cl)ccc2O)CC1 (stereo not given) | 0.002 |
| Cc1noc(-c2ccc(NCC[C@@H]3C[C@@H]4C=C[C@H]3C4)nc2)n1 | 0.004 |
| O=C(/C=C/c1ccco1)N1CCC2(CCCN(CCc3ccccc3)C2)C1 (stereo not given) | 0.01 |
| CCS(=O)(=O)c1ncc(CN(C)C2CCCCC2)n1CCCc1ccccc1 | 0.003 |
| O=C(/C=C/c1ccccc1)N1CCCC(c2nc(-c3ccncc3)ncc2-c2ccccc2)C1 (stereo not given) | -0.001 |
| Cc1cnccc1CN(C)C(=O)CC(c1ccccc1)c1ccccc1Cl (stereo not given) | 0.004 |
| O=C1NC(CC(=O)N(Cc2ccncc2)Cc2cccc(OCCc3ccc(F)cc3)c2)c2ccccc21 (stereo not given) | -0.009 |
| c1csc(CNc2nc(CN3CCc4ccccc4C3)nc3ccccc23)c1 | 0.001 |
| Cc1ccsc1C(=O)N(Cc1ccc(OCc2ccc3c(c2)OCO3)cc1)CC1CCCO1 (stereo not given) | -0.003 |
